# Measurements from article PMC12820563, “FoxP3 forms a head-to-head dimer in vivo and stabilizes its multimerization on adjacent microsatellites”.
# The list shows a part of the results.
# Target: T1, MBP-FoxP1dN (Mus musculus, UniProt P58462 326-579)
# T1 sequence: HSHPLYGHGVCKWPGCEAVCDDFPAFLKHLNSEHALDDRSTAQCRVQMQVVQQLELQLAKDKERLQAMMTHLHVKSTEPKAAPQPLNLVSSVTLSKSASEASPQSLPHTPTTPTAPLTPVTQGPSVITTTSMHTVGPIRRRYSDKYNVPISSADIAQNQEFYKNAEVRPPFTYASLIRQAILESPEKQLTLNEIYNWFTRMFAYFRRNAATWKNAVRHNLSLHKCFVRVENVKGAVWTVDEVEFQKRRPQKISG
# Experiment: PD-seq (MBP pull-down with sequencing); 20 mM Tris-HCl pH 7.5, 100 mM NaCl, 1.5 mM MgCl2, 0.4 uM protein, 0.1 uM dsDNA library, 30 min, room temperature, amylose pull-down; high values mean tight binding
# Conditions: protein: recombinant; tags: His6-MBP; chain copies: 2; dsDNA, one strand shown
# Procedure, shortened: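 His6-MBP-tagged mouse FoxP3 or FoxP1 fragment lacking the N-terminus, expressed in E. coli, was mixed at 0.4 µM with 0.1 µM Klenow-filled double-stranded degenerate DNA library. Incubation was 30 min at room temperature in Tris pH 7.5 buffer with NaCl and MgCl2. Complexes were caught on amylose resin and washed three times; DNA was released with proteinase K, PCR-barcoded and Illumina-sequenced. Binding is reads-per-million enrichment, pull-down over input, with replicates pooled.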
row,Sequence,binding signal
1,GATGATTGTTCTCCCAGCTGATGAATTTACTCAGTCGAGTAAACAAATTTTCCTAATCTTTCTGTTCAAGCGCCATCTAC,1.14 RPM ratio (pull-down/input)
2,GATGATTGTTCTCCCAGCTGATGAATTTCATATTTCGAGTAAACAAATTTTCCTAATCTTTCTGTTCAAGCGCCATCTAC,0.996 RPM ratio (pull-down/input)
3,GATGATTGTTCTCCCAGCTGATGAATTATCTAGTTCGAGTAAACAAATTTTCCTAATCTTTCTGTTCAAGCGCCATCTAC,1.02 RPM ratio (pull-down/input)
4,GATGATTGTTCTCCCAGCTGATGAATTAGGGTTGTCGAGTAAACAAATTTTCCTAATCTTTCTGTTCAAGCGCCATCTAC,1.03 RPM ratio (pull-down/input)
5,GATGATTGTTCTCCCAGCTGATGAATTCAATCGTTCGAGTAAACAAATTTTCCTAATCTTTCTGTTCAAGCGCCATCTAC,0.98 RPM ratio (pull-down/input)
6,GATGATTGTTCTCCCAGCTGATGAATTATGAACCTCGAGTAAACAAATTTTCCTAATCTTTCTGTTCAAGCGCCATCTAC,0.86 RPM ratio (pull-down/input)
7,GATGATTGTTCTCCCAGCTGATGAATTAATATTATCGAGTAAACAAATTTTCCTAATCTTTCTGTTCAAGCGCCATCTAC,1.5 RPM ratio (pull-down/input)
8,GATGATTGTTCTCCCAGCTGATGAATTTACTAAATCGAGTAAACAAATTTTCCTAATCTTTCTGTTCAAGCGCCATCTAC,1.72 RPM ratio (pull-down/input)
9,GATGATTGTTCTCCCAGCTGATGAATTGTTCGCGTCGAGTAAACAAATTTTCCTAATCTTTCTGTTCAAGCGCCATCTAC,1.08 RPM ratio (pull-down/input)
10,GATGATTGTTCTCCCAGCTGATGAATTTAGCTGCTCGAGTAAACAAATTTTCCTAATCTTTCTGTTCAAGCGCCATCTAC,0.974 RPM ratio (pull-down/input)
11,GATGATTGTTCTCCCAGCTGATGAATTCCGGGTCTCGAGTAAACAAATTTTCCTAATCTTTCTGTTCAAGCGCCATCTAC,0.675 RPM ratio (pull-down/input)
12,GATGATTGTTCTCCCAGCTGATGAATTATAATACTCGAGTAAACAAATTTTCCTAATCTTTCTGTTCAAGCGCCATCTAC,1.11 RPM ratio (pull-down/input)
13,GATGATTGTTCTCCCAGCTGATGAATTGAAGGTTTCGAGTAAACAAATTTTCCTAATCTTTCTGTTCAAGCGCCATCTAC,0.835 RPM ratio (pull-down/input)
14,GATGATTGTTCTCCCAGCTGATGAATTATAGATCTCGAGTAAACAAATTTTCCTAATCTTTCTGTTCAAGCGCCATCTAC,0.835 RPM ratio (pull-down/input)
15,GATGATTGTTCTCCCAGCTGATGAATTTGCAGCCTCGAGTAAACAAATTTTCCTAATCTTTCTGTTCAAGCGCCATCTAC,0.906 RPM ratio (pull-down/input)
16,GATGATTGTTCTCCCAGCTGATGAATTGTAAAATTCGAGTAAACAAATTTTCCTAATCTTTCTGTTCAAGCGCCATCTAC,0.958 RPM ratio (pull-down/input)
17,GATGATTGTTCTCCCAGCTGATGAATTAAGAAGATCGAGTAAACAAATTTTCCTAATCTTTCTGTTCAAGCGCCATCTAC,0.906 RPM ratio (pull-down/input)
18,GATGATTGTTCTCCCAGCTGATGAATTCTCAGCATCGAGTAAACAAATTTTCCTAATCTTTCTGTTCAAGCGCCATCTAC,1.04 RPM ratio (pull-down/input)
19,GATGATTGTTCTCCCAGCTGATGAATTGCGCGCTTCGAGTAAACAAATTTTCCTAATCTTTCTGTTCAAGCGCCATCTAC,1.06 RPM ratio (pull-down/input)
20,GATGATTGTTCTCCCAGCTGATGAATTGACGCGCTCGAGTAAACAAATTTTCCTAATCTTTCTGTTCAAGCGCCATCTAC,1.04 RPM ratio (pull-down/input)

row,Sequence,binding signal
1,GATGATTGTTCTCCCAGCTGATGAATTCAGAGATTCGAGTAAACAAATTTTCCTAATCTTTCTGTTCAAGCGCCATCTAC,0.864 RPM ratio (pull-down/input)
2,GATGATTGTTCTCCCAGCTGATGAATTGGGAGCGTCGAGTAAACAAATTTTCCTAATCTTTCTGTTCAAGCGCCATCTAC,0.9 RPM ratio (pull-down/input)
3,GATGATTGTTCTCCCAGCTGATGAATTGTAATTGTCGAGTAAACAAATTTTCCTAATCTTTCTGTTCAAGCGCCATCTAC,1.39 RPM ratio (pull-down/input)
4,GATGATTGTTCTCCCAGCTGATGAATTCTGTCCGTCGAGTAAACAAATTTTCCTAATCTTTCTGTTCAAGCGCCATCTAC,0.824 RPM ratio (pull-down/input)
5,GATGATTGTTCTCCCAGCTGATGAATTTCATGCTTCGAGTAAACAAATTTTCCTAATCTTTCTGTTCAAGCGCCATCTAC,0.882 RPM ratio (pull-down/input)
6,GATGATTGTTCTCCCAGCTGATGAATTCAGACACTCGAGTAAACAAATTTTCCTAATCTTTCTGTTCAAGCGCCATCTAC,0.817 RPM ratio (pull-down/input)
7,GATGATTGTTCTCCCAGCTGATGAATTGTTCCTCTCGAGTAAACAAATTTTCCTAATCTTTCTGTTCAAGCGCCATCTAC,1.09 RPM ratio (pull-down/input)
8,GATGATTGTTCTCCCAGCTGATGAATTAGCCATCTCGAGTAAACAAATTTTCCTAATCTTTCTGTTCAAGCGCCATCTAC,0.909 RPM ratio (pull-down/input)
9,GATGATTGTTCTCCCAGCTGATGAATTCCAGTAATCGAGTAAACAAATTTTCCTAATCTTTCTGTTCAAGCGCCATCTAC,1.31 RPM ratio (pull-down/input)
10,GATGATTGTTCTCCCAGCTGATGAATTTCATTCATCGAGTAAACAAATTTTCCTAATCTTTCTGTTCAAGCGCCATCTAC,0.872 RPM ratio (pull-down/input)
11,GATGATTGTTCTCCCAGCTGATGAATTATCCGGTTCGAGTAAACAAATTTTCCTAATCTTTCTGTTCAAGCGCCATCTAC,0.926 RPM ratio (pull-down/input)
12,GATGATTGTTCTCCCAGCTGATGAATTTCCCTCCTCGAGTAAACAAATTTTCCTAATCTTTCTGTTCAAGCGCCATCTAC,0.8 RPM ratio (pull-down/input)
13,GATGATTGTTCTCCCAGCTGATGAATTCAGCTCATCGAGTAAACAAATTTTCCTAATCTTTCTGTTCAAGCGCCATCTAC,0.865 RPM ratio (pull-down/input)
14,GATGATTGTTCTCCCAGCTGATGAATTGCGAGCTTCGAGTAAACAAATTTTCCTAATCTTTCTGTTCAAGCGCCATCTAC,0.97 RPM ratio (pull-down/input)
15,GATGATTGTTCTCCCAGCTGATGAATTTGAAAAGTCGAGTAAACAAATTTTCCTAATCTTTCTGTTCAAGCGCCATCTAC,0.847 RPM ratio (pull-down/input)
16,GATGATTGTTCTCCCAGCTGATGAATTGTGGCTCTCGAGTAAACAAATTTTCCTAATCTTTCTGTTCAAGCGCCATCTAC,0.98 RPM ratio (pull-down/input)
17,GATGATTGTTCTCCCAGCTGATGAATTATGGACGTCGAGTAAACAAATTTTCCTAATCTTTCTGTTCAAGCGCCATCTAC,0.907 RPM ratio (pull-down/input)
18,GATGATTGTTCTCCCAGCTGATGAATTTTGAAGATCGAGTAAACAAATTTTCCTAATCTTTCTGTTCAAGCGCCATCTAC,0.933 RPM ratio (pull-down/input)
19,GATGATTGTTCTCCCAGCTGATGAATTGTCGTGTTCGAGTAAACAAATTTTCCTAATCTTTCTGTTCAAGCGCCATCTAC,1.07 RPM ratio (pull-down/input)
20,GATGATTGTTCTCCCAGCTGATGAATTGCGTCCGTCGAGTAAACAAATTTTCCTAATCTTTCTGTTCAAGCGCCATCTAC,1.04 RPM ratio (pull-down/input)
